# Measured values: the supplement of paper PMC3334620
# The full ranking holds about 33,000 sequences; the median of “E-score (-0.5 to 0.5)” is about -0.043, and the highest 2% start at about 0.37. This is one part of the list.
# Target: T1, Upc2 (UniProt Q12151)
# T1 sequence: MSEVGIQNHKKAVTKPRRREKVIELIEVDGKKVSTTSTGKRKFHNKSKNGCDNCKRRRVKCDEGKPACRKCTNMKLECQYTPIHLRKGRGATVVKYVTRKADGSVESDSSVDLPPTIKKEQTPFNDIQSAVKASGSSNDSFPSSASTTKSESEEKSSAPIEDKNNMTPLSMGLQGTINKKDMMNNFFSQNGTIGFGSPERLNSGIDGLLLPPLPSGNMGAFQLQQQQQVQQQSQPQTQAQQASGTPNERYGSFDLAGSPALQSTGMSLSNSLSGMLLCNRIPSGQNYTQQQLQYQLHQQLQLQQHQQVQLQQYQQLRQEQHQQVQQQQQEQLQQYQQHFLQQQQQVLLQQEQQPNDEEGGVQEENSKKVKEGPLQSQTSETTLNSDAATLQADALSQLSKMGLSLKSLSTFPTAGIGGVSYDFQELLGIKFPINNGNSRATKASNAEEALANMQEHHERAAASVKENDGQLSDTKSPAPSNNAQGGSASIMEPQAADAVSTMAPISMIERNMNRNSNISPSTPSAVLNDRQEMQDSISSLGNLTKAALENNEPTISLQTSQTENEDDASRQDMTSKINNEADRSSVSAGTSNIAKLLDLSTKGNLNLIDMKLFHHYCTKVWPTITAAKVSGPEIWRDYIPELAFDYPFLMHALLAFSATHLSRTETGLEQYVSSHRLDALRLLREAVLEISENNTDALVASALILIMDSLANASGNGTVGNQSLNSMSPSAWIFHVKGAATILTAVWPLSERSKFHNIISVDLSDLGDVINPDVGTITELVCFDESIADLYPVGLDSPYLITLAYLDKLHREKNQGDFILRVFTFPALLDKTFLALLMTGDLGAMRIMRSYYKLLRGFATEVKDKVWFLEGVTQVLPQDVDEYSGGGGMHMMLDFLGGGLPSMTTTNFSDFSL
# Experiment: PBM E-score (8-mer binding enrichment) (E-score (-0.5 to 0.5)); higher = stronger / more preferred TF binding; most listed sequences are background and not binding sites
# Settings: protein concentration: 200 nM; construct: GST-full length
# Protocol: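 Universal 'all 10-mer' protein binding microarrays (Agilent AMADID 015681) probed with GST-tagged S. cerevisiae TFs (full-length or DBD) made by in vitro transcription/translation (PURExpress), about 100-200 nM. Bound TF was detected with fluorescent anti-GST. Each ungapped 8-mer (which stands for itself and its reverse complement) is scored by the PBM enrichment score (E-score), a modified Wilcoxon-Mann-Whitney statistic from -0.5 to +0.5, computed with the Universal PBM Analysis Suite. Scale: above 0.35 generally sequence-specific binding.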
row,Sequence,PBM E-score
1,CACATGTA,-0.0925
2,ACCGCCCG,-0.0398
3,CTGTATTA,0.0384
4,AGTCTCAT,-0.177
5,CGTTGGTA,0.122
6,GACTTTGA,0.112
7,CCCAGTGA,-0.231
8,ATAATATC,0.0315
9,AAGTCGGG,-0.00586
10,TATTAGCA,0.00925
11,CCGTAGGC,-0.269
12,GACAGCCC,-0.093
13,ACATGCAC,-0.0716
14,GGATAGTA,0.0498
15,CTGATTAC,0.0106
16,GTCACCGA,-0.0815
17,GCCAAATA,0.123
18,GTGGTGCA,-0.128
19,GCCGATCC,0.0205
20,CCATCTGC,-0.00423
21,AACCAGAC,0.0359
22,GGTCGATA,-0.00733

row,Sequence,PBM E-score
1,CGACTCCA,0.0303
2,GAGATGAC,-0.206
3,CCCCATCG,0.0968
4,CGGACATA,0.0482
5,ATACGGCC,0.416
6,AAACGCAA,0.232
7,GTGCTCGA,0.0349
8,GTGTGGTA,0.0441
9,CGCAATAC,0.102
10,GAGCATCC,-0.144
11,AGTGCAAC,-0.0263
12,CAGCTTGA,-0.103
13,AGTCTAAG,-0.0185
14,GCAGTTCC,-0.184
15,AGTACATA,-0.0422
16,ATTCTCAA,-0.0926
17,AGGTTAAA,-0.0168
18,CGAGGGCG,0.109
19,ACACAGAC,-0.129
20,ATATATGG,-0.112
21,ACCATATC,0.104
22,AAAAAGCT,-0.112

row,Sequence,PBM E-score
1,CTCACTAC,0.0476
2,AATTAGAG,-0.0424
3,CCTCGTCA,0.108
4,ACTCAGTG,-0.26
5,CTAGTTGA,-0.228
6,CCCTGTAA,-0.017
7,ACGATTCA,0.328
8,AGGGTAAT,-0.138
9,GGCCGACC,-0.136
10,TATGCAAA,0.0871
11,AAATGCTA,-0.0542
12,AACGGGCA,0.246
13,AGAATATA,0.12
14,AATGCATC,-0.0637
15,TCCTCAAA,-0.24
16,CGCTCCCC,-0.0176
17,ACAGGTTG,-0.0143
18,CCGTTTCA,0.159
19,GATTGGAA,-0.102
20,GATACTAA,0.00269
21,AAGTCATA,-0.0313
22,GTCTCACA,-0.0791

row,Sequence,PBM E-score
1,AGAGGGGA,-0.229
2,AACCGGCG,0.151
3,ATGGAAAG,-0.0331
4,GCAACCGC,-0.0336
5,ACGCAAGA,0.0175
6,CTCTACGA,0.409
7,TACATAGA,-0.183
8,AGCCTCCG,-0.121
9,CCACGCTA,-0.0927
10,CAGTGTCA,-0.179
11,ACGGATAA,0.12
12,CCACTTCC,-0.0858
13,AGTTTGAC,0.0787
14,ATCAAGAC,-0.166
15,GAAACACA,0.103
16,GACCCATC,-0.0659
17,CGCGGAAA,-0.062
18,CAGCGACA,0.0616
19,CTGCTGCA,-0.168
20,CGCAGAAC,0.155
21,CATTTCGG,-0.104
22,TCCTCGCA,0.164

row,Sequence,PBM E-score
1,CAAAGATG,-0.0527
2,CCATCCTC,-0.031
3,AGTCCTGG,-0.0925
4,AACTTTGA,-0.16
5,ACCCGTCG,0.122
6,AGGAAAGA,-0.254
7,CGCATCTC,-0.107
8,AGCACTCG,0.111
9,ATCTTCAA,-0.136
10,AATATGAG,0.0422
11,AAGGAATG,-0.128
12,GACGAATA,0.0289
13,CGTACAGA,0.41
14,AGGGCATG,-0.177
15,AGCCTACA,-0.317
16,ACCGTGAA,-0.0592
17,GGGCCTGA,-0.081
18,CACTCGCC,-0.0485
19,ACACGCTC,0.0594
20,GGGGCGCA,-0.174
21,ACATTGAA,0.056
